# From the RNAGym collection of RNA variant scans (doi:10.7554/elife.90254)
# Read counts are not given, so values of variants with three or more changes are uncertain.
# B1: LINE1-mini (parent)
# chain: GGCAGAGCUCAACACAGCGUGGCAAAGUGGCUGUGGCUAGACUGCC
# Variants of: B1
# Assay: self-cleavage, relative activity (ratio to wild type); higher = more cleavage; in vitro, sequencing; the parent is a self-cleaving ribozyme
row,Variant,self-cleavage
1,GGCCGAGCUCAAGACAGCGUGGCAAAGUGGCUGUGGCUAGACGUCC,0.16
2,GGCCUAGCUCAACACAGCGUGGCAAAGUGGCUGUGGCUUGACUGCC,0.04
3,GGCCGACCACAACACAGUGUGGCAAAGCGGCUGUGGCUAGACUGCC,0.04
4,GGCCGAGCUCAACACAGUGUGGCAAAGUGGCUGAGGCUAGACUGCC,0
5,GGCCGAGCUCAACACAGCUUGGUACAGCGGCUGUGGCUAGACUGCC,0.03
6,GGCCUAGCUCAACACAGCGUGGCAAGGUGGCUGUGGCUAGACUGCC,0.09
7,GGCCAAGCUCAACACAGCGUGGCAAAGUGGCUGUGUCUAGACUGCC,0.05
8,GGCCGAGCUCAACACACCGUGGCAAAGUGGCUGUGGCUAGAUUGCU,0.04
9,GGCCGAGCUCAAAACACCGUGGCAAAGUGGCUGUGGCUAGACAGCC,0.01
10,GGCCGAGCUCAACACAGCGUGGAAAAGUUGCUGUGGCGAGACUGCC,0.02
11,GGCCGAACUCAACACAGCGUGGCAAGGUGGCUGUGGCGAGACUGCC,0.11
12,GGCCAUGCCCAACACAGCGUGACAAAGUGGCUGUGGCUAGACUGCC,0.06
13,GGCCGAGCUCAACACAUCGUGGCCAAGUGGAUGUGGCUAGACUUCC,0.03
14,GGCCGAGCUCAACACAGCGUGGCAAAGUGGCUGUGGUUAAACUGCC,0
15,GGCCGAGCUCAACACAGCCUGGCAAAGUGGCUCUGGCUAGACUGCC,0.02
16,GGCCGAGCUUAAUACAGCGUUGUGAAGUGGCCGUGGCUAGACUGCC,0.02
17,GGCGGCGCUCACCACAGCAUGACAAAGUGGCUGUGGUUAGACUGCC,0
18,GGCCGAGCUCAAAACAGCGUGGCAAAGUGGCUCUGGCUAGACUGCC,0.13
19,GGCCGAGCGCAACACAGCGUGGCAAAGUGGCUGUGGCUCGACUGCC,0.03

row,Variant,self-cleavage
1,GGCCGAGCUCAACACAUCGUGGCAAAGUGGCUGGGGCUAAACUGCC,0.1
2,GGCCUAGCUCACCGCAGCGUCGCAAAGUGGCUGUGGCUAGAAUGCC,0.04
3,GGCCGAGCUCAACACAGCGUGGCAAAGUGGCCGUAGCUUGACUGCC,0.05
4,GGCCGAGCUCAACACAGCGUGGCAAAGUGGCUGUUGCUAGACGGCC,0.03
5,GGCCUAGCUCAACACAGCGUGGCAAAGUGGCGGUGGCUAGACUACC,0.01
6,GGCCGAGCUCAACAAUGCGCGGCAAAGUGGCUAUGGCUAGACUGCC,0.02
7,GGCCGAGCUCAACACAGCGUGCCAAUGUGGCUGUGGCUAAACUUCC,0.11
8,GGCCGAGCUCAACACAGUGUAGCAAAGUGGCUGUUGCUAGACUGCC,0.08
9,GGCCGAGCUCAAGACAGCGUUGCAAAGUGGCUGUGGCUAUACUGCC,0.28
10,GGCCGAGCUCAACACAGCGUGGCAAAGUGGCUGUGGCUAGAAUGCU,0.04
11,GGCCGAGCACAACACAGCGUGGCUAAGUGGCUGUGGCUACUCUGCC,0.57
12,GGCCUAGCUCAACACAGAGUGGGAAAGUGGUUGUAGCUCGACUGCU,0.11
13,GGCCGAGCUCAACACAGCGUGUAAAAGUGGCUGUGACUAGACUGCC,0.18
14,GGCCCAGCUCAACACAGCGUAGCAAAGUGGCUGUGGCUAGACUGCC,0.27
15,GGCCGAGCUCAACACAGCGUGGCAAAGUGGCUGUGGCGAGACUGCU,0.07
16,GGCCGAUCUCAACAGAGCGUGGCAAAGUGGAUGUGGCUAGACUGAC,0.04
17,GGCGGCGCUCAACACAGCGUGGCAAAGUGGCUGUGGGUAGACUUCC,0.37
18,GGCCGACCUAAACACAGGGUGGCAAAGUGGAUGUGGCUAGACUGCC,0.05
19,GGCCGAGCUCAACACAGCGUGGCAAAGUGGUAGUGGCUAGCCUGCC,0.01

row,Variant,self-cleavage
1,GGCCGAGCUCAACACAGCGUUGCAAAGUCGCUGUGGCUAGACUGCC,0
2,GGCCGAGCUCAACACAGCGAGGCAAAGAUGCUGUGCCUACACUGCC,0.16
3,GGCCGAGCUCAACAGAGCGUGGAAAAGUGGCUGUGGCAAGACUGCC,0.02
4,GGCCGAGCUCAACAUAGCGUGGCUAAGUGGCUGUGGCUAGACAGCC,0.56
5,GGCCGAGCUCAAAACAGCGUUGCAAAGUGGCUGUGGCUAGAUUGCC,0.58
6,GGCCGAGCUCAACACAGCGUGGCAAAGUGUCUGUGGCUACAAUGCC,0.57
7,GGCCGAGCUCAACACAGCGUGGUAAAGUGGCUUUGGCUAGACUGCC,0.05
8,GGCCGAGCCCAACACAGCGUGGCAAAGUGGCUGUGGCUAGACUCCC,0.02
9,GGCCGAGCUCAACACAGCGUGGCAAAGUGCCUGUAGGUAUAAUGCC,0.15
10,GGCCGAGCUCAACACAGCGCGGUAAAGUGGAUGUGGCUAGACUGCU,0.06
11,GGCCGAGCUCAACACAGCCUGGCAAAAUGGCUGUGGCUAGACUGCC,0.06
12,GGCCGAGCACAACGCAGCGUGGCAAAGUGGCUGUGGAUAGACUUAC,0.02
13,GGCCGAUCUCAACAAAGCGUGGCAAAGUGGCUGUGGCUAGACUGCC,0.11
14,GGCCGAGCUCAACACAGGGUGGCAUAGUGGCUGUGGCUAGACAGCA,0.01
15,GGCCGAGCUCAACACAGCUUGGCAAAGUGGCUGUGGCUAGACAGCC,0
16,GGCCGAUCUCAACACAGCGUGGCAAAGUGGCUGUGGCUAAACUGCC,0.22
17,GGCCGAGCUCAACACAGCGUGGCAAAGUGGCUGUGACUCGAAUCCC,0.04
18,GGCCGAGCUCAACAAAGCGUGGGAAAGUGGCUGUGGCUAGACUGCC,0.27
